Measured values: PMC6212790
Some of the results follow. At the low end of the ranking the order means little.

Biological target: T1, GST-Rok (full length) (UniProt O34857)
T1 sequence: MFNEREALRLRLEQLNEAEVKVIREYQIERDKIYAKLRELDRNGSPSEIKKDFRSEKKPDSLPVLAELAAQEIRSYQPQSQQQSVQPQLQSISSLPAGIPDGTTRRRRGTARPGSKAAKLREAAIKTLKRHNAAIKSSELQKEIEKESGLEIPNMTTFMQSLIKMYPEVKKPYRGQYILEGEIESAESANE
Assay: protein binding microarray;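 further: rank score from −0.5 (least bound) to 0.5 (best bound)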
Conditions: Rok is a gene silencer of Bacillus subtilis; high values mean tight binding; most listed sequences are background and not binding sites; double strand, one strand shown

Sequence	binding signal [E-score]
GCCGCTAA	0.188
CCACCTCG	-0.203
GAGAGTAC	0.0421
CGCGCCCA	-0.323
TATGCACA	0.189
CTTTGACC	-0.0937
GCGGTTAA	0.2
CCACTCTC	-0.106
ACTTAAGG	-0.0844
AGAATACA	0.07
ATCCACAG	-0.0161
CTCAGAGC	-0.195
CTACTCTC	0.0741
ACTTGCTG	0.0978
AATCGTGG	0.0461
CTGCGTCC	-0.261
ACTCGGCT	-0.0983
AAACATAT	0.316
ACACCAAT	0.0951
AAATTACG	0.194
GTCCGGGA	-0.145
CGTAACCA	-0.166
ATGCACCA	0.0237
GCAGCATA	0.127

Sequence	binding signal [E-score]
AAGTAGCA	0.204
ACAGCAGT	-0.0233
ATGGCTGA	0.0206
GGCGCGCA	-0.189
GGGTATAC	-0.113
CCACTACA	0.0814
ACCCTATA	0.109
AGTTCCCG	-0.287
ACGTACCT	0.0285
TCAGTCGA	-0.0164
ACTCTCTG	-0.108
GGCTTTTA	-0.146
ATGCACTG	0.0771
AAAAAAGG	-0.151
CTAAGAAA	0.152
CGTTAAGA	-0.0916
AGAAGCTG	0.0165
AAAATTCT	0.111
AGTGCTGG	-0.0765
AAAACCTT	-0.0977
AAGGGTAA	0.114
AGAGTTGA	-0.0925
AATTGGGC	-0.277
AATTGCCT	-0.0123

Sequence	binding signal [E-score]
ACCTGTAG	0.0716
AACCTATA	0.239
CATCTCCG	-0.175
CTCCCAGA	-0.267
GACTAGGA	-0.00844
ACAAAGTG	0.00867
CATGAAAC	-0.125
AAAGGTCC	-0.229
CCCGTATC	-0.19
CGTGCTAG	-0.00174
AAATCGTC	0.0685
GCACCATA	-0.0109
CATACAGG	-0.038
CAGCGCGC	-0.112
GTAAAGTA	0.332
TCAATGCA	-0.0144
GAGGTAAA	0.199
CAGGGGAA	-0.201
CTGAAGCC	-0.293
ATTCGACC	-0.0214
ACGCCACT	-0.16
GAAGCTGC	-0.174
CTACGATA	0.302
GACCAGCC	-0.335

Sequence	binding signal [E-score]
GCCCTTTA	-0.161
GGTCCAGA	-0.295
CGGTCAGA	-0.032
CTACGGTC	0.0649
ACGAGATA	0.0753
ATATAGAG	0.208
AGTAAAAC	0.31
ACGGGACT	0.0251
AGCGTAGC	-0.259
CGGCGTTA	-0.028
GGAAGGTA	0.0109
GGACTCTA	-0.165
AATTACAT	0.281
GAGGCAGC	-0.244
CCACGAGA	-0.174
CAAGGCCC	-0.349
GACACTGC	-0.145
AAAATCTG	0.0686
AATTGTCA	-0.0939
GACGTTGA	-0.179
CATAATCG	0.218
ATAATGAC	0.206
